This passage reports self-cleavage results from the RNAGym collection of RNA variant scans (doi:10.7554/elife.90254).

The labels stand for the following.
B1: OR4K15 (parent)
chain: GUUAACGGUCAUAGGCCAUGGAAACUAGGAGCACCAUUUCGCUGCCAGUGAAGAAAUGAACAAAGAAAAUCUGGGCCAGGCAGGCAUCAAAAGAAAUAGUCUUGCGCUCAACCAGAAAGUCUGUAAUCAUUUUAAGGGUA

Read counts are not given, so values of variants with three or more changes are uncertain.

In this data set the parent is B1. The experiment in a line: self-cleavage, relative activity (ratio to wild type); higher = more cleavage; in vitro, sequencing; the parent is a self-cleaving ribozyme.
Consider GUUAACGGUCAUAGGCCAUGGAAACUAGGAGCACCAUUUCGCUGCCAGUGAAGAAAUGAACAAGGAAAGUCUGGGCUAGGCAGGCAUCAAAAGAAAUAGUCUUGCGCUCGACCAGAAAGUCUGUAAUCAUUUUAAGGGUA, for which the self-cleavage is 0.38.

Take GUUAACGGUCAUAGGCCAUGGAAACUAGGAGCACCAUUUCGCUGCCAGUGAAGAAAUGAACAGAGAAAAUCUGGGCCAGGCAGGCAUCAAAAGAAAUAGUCAUGCGCUCAACCAGAAAGUCUGUAAUCAUUUUAAGGGUU: the self-cleavage is 0.59.

For the variant GUUAACGGUCAUAGGCCAUGGAAACUAGGAGCACCAUUUCGCUGCCAGUGAAGAAAUGAACAAGGAGAAUCUGGGCCAGGCAGGCAUCAAAAGAAAUAGUCUAGCGCUCAACCAGAAAGUCCGUAAUCAUUUUAAGGGUA, the self-cleavage was determined as 0.65.

Turning to GUUAACGGUCAUAGGCCAUGGAAACUAGGAGCACCAUUUCGCUGCCAGUGAAGAAAUGAACAUAGAAAACCUGGGCUAGGCAGGCACCAAAAGAAAUAGUCUUGCGCUCAACCAGAAAGUCUGUAAUCAUUUUAAGGGUA, the self-cleavage was determined as 2.09.

Turning to GUUAACGGUCAUAGGCCAUGGAAACUAGGAGCACCAUUUCGCUGCCAGUGAAGAAAUGAACAAGGGAAAUCUGGGCCAGGCAGGCACCAAAAGAAAUAGUCUUGCGCUCAACCAGGAAGUCUGUAAUCAUUUUAAGGGUA, the self-cleavage stood at 0.18.

Take GUUAACGGUCAUAGGCCAUGGAAACUAGGAGCACCAUUUCGCUGCCAGUGAAGAAAUGAACAGAGAAAAUCUGGGCCAGGCAGGCAUCAAAAGAAAUAGUCUUGCGCUCAACCAGAAAGCCUGUAAUCAUUCUAAGGGUA: the self-cleavage amounted to 0.47.

As to GUUAACGGUCAUAGGCCAUGGAAACUAGGAGCACCAUUUCGCUGCCAGUGAAGAAAUGAACAUGGAAAAUCUGGGCCAGGCAGGCACCAAAAGAAAUAGUCUUGCGCUCGACCAGAAAGUCUGUAAUCAUUUUAAGGGUA, the self-cleavage worked out at 0.1.

For the variant GUUAACGGUCAUAGGCCAUGGAAACUAGGAGCACCAUUUCGCUGCCAGUGAAGAAAUGAACAUAGAAAAUCAGGGCCAGGCAGGCAUCAAAAGAAAUAGUCUUGCGCUCAACCAGAAAGGCUGUAAUCAUUUUAAGGGUA, the self-cleavage was determined as 0.17.

As to GUUAACGGUCAUAGGCCAUGGAAACUAGGAGCACCAUUUCGCUGCCAGUGAAGAAAUGAACAAGGAAAAUCUGGGCCAGGCAGGCGUCAAGAGAAAUAGUCUUGCGCUCAACCAGAAAGUCUGUAAUCAUUUUAAGGGUA, the self-cleavage amounted to 0.05.

With GUUAACGGUCAUAGGCCAUGGAAACUAGGAGCACCAUUUCGCUGCCAGUGAAGAAAUGAACAACGAAGAUCUGGGCCAGGCAGGCAUCAAAAGAGAUAGUCUUGCGCUCAACCAGAAAGUCUGUAAUCAUUUUAAGGGUA, the self-cleavage was 1.29.

As for GUUAACGGUCAUAGGCCAUGGAAACUAGGAGCACCAUUUCGCUGCCAGUGAAGAAAUGAACAAGGAGAAUCUGGGCCAGGCAGGCAUCAAAAGAAAUAGUCUUGCGCUCAACCAGAAAGACUGUAAUCAUUUUAAGGGUA, the self-cleavage came out at 0.66.

For GUUAACGGUCAUAGGCCAUGGAAACUAGGAGCACCAUUUCGCUGCCAGUGAAGAAAUGAACAAGGAGAAUCUGGGCCAGGCAGGCAUCAAAAGAAAUAGUCUUGCGCUCAACCAGAAAGCCUGUAAUCAUUUUAAGGGUA, the self-cleavage was 1.48.

As for GUUAACGGUCAUAGGCCAUGGAAACUAGGAGCACCAUUUCGCUGCCAGUGAAGAAAUGAACAUAGAAAAUCUGGGCCAGGCAGGCAUCAAAAGAAAUAGUCUUGCGCUCAACCAGAAAGUCUGCGAUCAUUUUAAGGGUA, the self-cleavage came out at 0.92.

In the case of GUUAACGGUCAUAGGCCAUGGAAACUAGGAGCACCAUUUCGCUGCCAGUGAAGAAAUGAACAAGGAAAGUCUGGGCCAGGCAGGCAUCAAAAGAAAUAGUCUUGCGCUCAACCAGAAAGUCCGUAAUCAUUUUAAGGGUA, the self-cleavage is 1.65.

Regarding GUUAACGGUCAUAGGCCAUGGAAACUAGGAGCACCAUUUCGCUGCCAGUGAAGAAAUGAACAAGGAAAAUCUGGGCCAGGCAGGCAUCAGAAGAAAUAGUCUUGCGCUUAACCAGAAAGUCUGUAAUCAUUUUAAGGGUA, the self-cleavage is 0.33.

Turning to GUUAACGGUCAUAGGCCAUGGAAACUAGGAGCACCAUUUCGCUGCCAGUGAAGAAAUGAACAUGGAAAAUCUGGGCCAGGCAGGCAUCAAAAGAAAUAGUCUUGCGCUCAACCAGAAAGCCUGUAAUCAUUUUAAGGGUA, the self-cleavage turned out to be 1.63.

For GUUAACGGUCAUAGGCCAUGGAAACUAGGAGCACCAUUUCGCUGCCAGUGAAGAAAUGAACAUAGAAAAUCUGGGCCAGGCAGGCAUCAAAAGAAAUUGUCUUGCGCUCAACCAGAAAGUCAGUAAUCAUUUUAAGGGUA, the self-cleavage came to 1.54.

GUUAACGGUCAUAGGCCAUGGAAACUAGGAGCACCAUUUCGCUGCCAGUGAAGAAAUGAACAUAGUAAAUCUGGGCCAGGCAGGCCUCAAAAGAAAUAGUCUUGCGCUCAACCUGAAAGUCUGUAAUCAUUUUAAGGGUA: the self-cleavage was 0.1.

GUUAACGGUCAUAGGCCAUGGAAACUAGGAGCACCAUUUCGCUGCCAGUGAAGAAAUGAACAAGGAAAAUCUGGGCCAGGCGGGCAUCAAAAGAAAUAGUCUUGCGCUCAACCAGAAAGUCUGCAAUCAUUUUAAGGGUA: the self-cleavage was determined as 0.24.

On to GUUAACGGUCAUAGGCCAUGGAAACUAGGAGCACCAUUUCGCUGCCAGUGAAGAAAUGAACAAGGAAAAUCUGGGCCAGGCAGGCAUCAAAGGAGAUAGCCUUGCGCUCAACCAGAAAGUCUGUAAUCAUUUUAAGGGUA, for which the self-cleavage was 2.23.

Take GUUAACGGUCAUAGGCCAUGGAAACUAGGAGCACCAUUUCGCUGCCAGUGAAGAAAUGAACAUAGAAAAUCCGGGCCAGGCAGGCAUCAAAAGAAAUAGUCUUGCGCUCAACCAGAAAGUCUGUAAUCGUUUUAAGGGUA: the self-cleavage was 0.13.

As to GUUAACGGUCAUAGGCCAUGGAAACUAGGAGCACCAUUUCGCUGCCAGUGAAGAAAUGAACAGAGAAAAUCUGGGCCAGGCAGGCAUCAAAAGAAAUAGCCUUGCGCUCAACCGGAAAGUCUGUAAUCAUUUUAAGGGUA, the self-cleavage is 0.95.

On to GUUAACGGUCAUAGGCCAUGGAAACUAGGAGCACCAUUUCGCUGCCAGUGAAGAAAUGAACAAGGAAAAUCUGGGCCAGGCAGGCAUCGAAAGAAGUAGUCUUGCGCUCAACCAGAAAGUCUGUAAUCAUUUUAAGGGUA, for which the self-cleavage was 1.44.

GUUAACGGUCAUAGGCCAUGGAAACUAGGAGCACCAUUUCGCUGCCAGUGAAGAAAUGAACAAGGAGAAUCUGGGCCAGGCAGGCAUCAAAAGAAAUAGUCUUGCGCUCAGCCGGAAAGUCUGUAAUCAUUUCAAGGGUA: the self-cleavage was 0.

Turning to GUUAACGGUCAUAGGCCAUGGAAACUAGGAGCACCAUUUCGCUGCCAGUGAAGAAAUGAACAAGGAAAAUCUGGGCCAGGCAGGCAUCAAAGGAAAUAGUCUUGCGCUCAACCAGAAAGUCUGUAUUCAUUUUAAGGGUA, the self-cleavage is 1.11.

On to GUUAACGGUCAUAGGCCAUGGAAACUAGGAGCACCAUUUCGCUGCCAGUGAAGAAAUGAACAAGGAAAAUCUGGGCCAGGCUGGCAUCAAAAGAAAUAGUCUUGCGCUCAACCAGAAAGUCUGUAAUCAUUCUAAGGGUA, for which the self-cleavage worked out at 0.11.

With GUUAACGGUCAUAGGCCAUGGAAACUAGGAGCACCAUUUCGCUGCCAGUGAAGAAAUGAACAAGGGAAAUCUGGGCCAGGCAGGCAUCAAAAGAAAUAGUCUUGCGCCCGACCAGAACGUCUGUAAUCAUUUUAAGGGUA, the self-cleavage was determined as 0.

Turning to GUUAACGGUCAUAGGCCAUGGAAACUAGGAGCACCAUUUCGCUGCCAGUGAAGAAAUGAACAUAGAAAGUCUGGGCCAGGCAGGCAUCAAAAGAAAUAGACUUGCGCUCAACCAGAAAGUCUGUAAUCAUUUUAAGGGUA, the self-cleavage was determined as 1.75.

Take GUUAACGGUCAUAGGCCAUGGAAACUAGGAGCACCAUUUCGCUGCCAGUGAAGAAAUGAACAGAGAAAAUCUGGGCCAGGCAGGCAUCAAAAGAAAUAGCCUUGCGCUCAACCAGAAAGUCUGUAAUCAUUCUAAGGGUA: the self-cleavage was determined as 2.47.

Regarding GUUAACGGUCAUAGGCCAUGGAAACUAGGAGCACCAUUUCGCUGCCAGUGAAGAAAUGAACAAGGAAAAUCUGGGCCUGGCAGGCAUCAAGAGAAAUAGUCUUGCGCUCAACCAGAAAGUCUGUAAUCAUUUUAAGGGUA, the self-cleavage amounted to 0.07.

Take GUUAACGGUCAUAGGCCAUGGAAACUAGGAGCACCAUUUCGCUGCCAGUGAAGAAAUGAACAAGGAGAAUCUGGGCCAGGCAGGCAUCAAAAGAAAUAGUCUUGCGCUCAACCAGAAAGUCAGUAAUCAUUUUAAGGGUA: the self-cleavage was 0.61.

In the case of GUUAACGGUCAUAGGCCAUGGAAACUAGGAGCACCAUUUCGCUGCCAGUGAAGAAAUGAACAGAGAAAAUCUGGGCCAGGCAGGCAUCAAAAGAAAUAGUCUUGCGCUCAACCAGAAAGUCAGUAGUCAUUUUAAGGGUA, the self-cleavage was determined as 0.65.

Take GUUAACGGUCAUAGGCCAUGGAAACUAGGAGCACCAUUUCGCUGCCAGUGAAGAAAUGAACAACGAAAAUCUGGGCCUGGCAGGCAUCAAAAGGAAUAGUCUCGCGCUCAACCAGAAAGUCCGUAAUCAUUUUAAGGGUA: the self-cleavage worked out at 0.03.

For the variant GUUAACGGUCAUAGGCCAUGGAAACUAGGAGCACCAUUUCGCUGCCAGUGAAGAAAUGAACAAGGAAAAUCUGGGCCAGGCAGGCAUCGAAAGAAAUAGUCUUGCGCUCAACCAGAAAGUCUGUGAUCAUUUUAAGGGUA, the self-cleavage worked out at 0.36.

Consider GUUAACGGUCAUAGGCCAUGGAAACUAGGAGCACCAUUUCGCUGCCAGUGAAGAAAUGAACAAGGAAAAUCUGGGCCAGGCCGGCAUCAAAAGAAAUAGUCUUGCGCUCAACCAGAAAGUCUGUGAUCAUUUUAAGGGUA, for which the self-cleavage is 0.07.

Turning to GUUAACGGUCAUAGGCCAUGGAAACUAGGAGCACCAUUUCGCUGCCAGUGAAGAAAUGAACAAGGAGAAUCUGGGCCAGGCAGGCAUCAAAAGAAAUAGUCUUGCGCUCAACCAGAAAGUCUGUAAUCACUUUAAGGGUA, the self-cleavage is 0.73.

GUUAACGGUCAUAGGCCAUGGAAACUAGGAGCACCAUUUCGCUGCCAGUGAAGAAAUGAACAAGGAAGAUCUGGGCCAGGCAGGCAUCAAAAGAAAUAGUCUUGCGCUCAACCAGAAAGUCUGUAAUCAUUUUAAGGGUU: the self-cleavage came to 0.9.

Turning to GUUAACGGUCAUAGGCCAUGGAAACUAGGAGCACCAUUUCGCUGCCAGUGAAGAAAUGAACAACGAAAAUCUGGGCCAGCCAGGCAUCAAAAGAAAUAGCCUUGCGCUCAACCAGAAAGUCUGUAAUCAUUUUAAGGGUA, the self-cleavage came out at 0.05.

For the variant GUUAACGGUCAUAGGCCAUGGAAACUAGGAGCACCAUUUCGCUGCCAGUGAAGAAAUGAACAGAGAAAAUCUGGGCCAGGCAGGCAUCAAAAGAAAUAGUCUUGCGCUCAACCAGAAAGUCAGUAAUCAUUUCAAGGGUA, the self-cleavage was determined as 1.35.

With GUUAACGGUCAUAGGCCAUGGAAACUAGGAGCACCAUUUCGCUGCCAGUGAAGAAAUGAACAGAGAAAAUCUGGGCCAGGCAGGCACCAAAAGAAAUAGUCUCGCGCUCAACCAGAAAGUCUGUAAUCAUUUUAAGGGUA, the self-cleavage stood at 0.2.

Take GUUAACGGUCAUAGGCCAUGGAAACUAGGAGCACCAUUUCGCUGCCAGUGAAGAAAUGAACAAGGAAAAUCUGGGCCAGGCUGGCAUCAAAAGAGAUAGUCUUGCGCUCAACCAGAAAGUCCGUAAUCAUUUUAAGGGUA: the self-cleavage was 0.17.
